We go through 36 compounds from the supplement of paper PMC4723716.

Molecules are shown by their SMILES. ± gives the uncertainty stated by the source. Over roughly 9,900 compounds, “viability index relative to DMSO control” has its median near 1; the lowest 2% begin near 0.85. This is one part of the list.

For the assay, the system named is Plasmodium falciparum NF54 stage V gametocytes. The experiment in a line: viability index relative to DMSO control (fraction); higher = less gametocyte killing. The following applies: 2.5 µM, incubation time: 72 h. The protocol:
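Broad DOS informer set and blood-stage-active DOS compounds screened in duplicate at 2.5 µM against P. falciparum NF54 stage V gametocytes with the serum-free one-step SaLSSA (1536-well): 72 h at 37 °C under low oxygen, then saponin lysis and MitoTracker Red CMXRos staining, with high-content imaging. Viability index = viable-object count divided by the plate mean of DMSO wells (0 = killed, about 1 = inactive).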

Where [1] appears, read: library set: Broad Institute DOS.

`Cc1noc(C)c1NC(=O)Nc1ccc2c(c1)C(=O)N(C)[C@H]1CC[C@H](CC(=O)N[C@@H]3CCN(Cc4ccccc4)C3)O[C@@H]1CO2` returned a viability index under setting [1] of 0.898 ± 0.15.
On to `O=C(Cc1ccncc1)N1CC[C@@H]2[C@H]1c1cc(Br)ccc1N[C@@H]2CO`, for which the viability index under setting [1] was determined as 0.983 ± 0.081.
Regarding `CN(C)C(=O)c1cccc(-c2ccc([C@@H]3[C@@H]4CN(C(=O)CN5CCOCC5)C[C@H]3N4)cc2)c1`, under setting [1], the viability index was determined as 1.08 ± 0.033.
Under setting [1], `CO[C@@H]1CN(C)C(=O)c2ccc(NC(=O)c3cc(C)on3)cc2OC[C@@H](C)N(S(=O)(=O)c2cccc(F)c2)C[C@H]1C` gave a viability index of 1 ± 0.019.
With `CO[C@@H]1CC[C@H]2CCN(C)C(=O)[C@@H](C)CN(C)C(=O)c3cc(C#N)ccc3OC[C@@H]1O2`, the viability index under setting [1] turned out to be 1.03 ± 0.076.
Under setting [1], `O=C(C[C@H]1CC[C@H]2[C@@H](COC[C@@H](O)CN2C(=O)Nc2ccccc2)O1)NCc1ccccc1F` had a viability index of 1.05 ± 0.048.
As for `COc1ccc(CN(C)C[C@@H]2OCCCC[C@@H](C)Oc3ccc(NC(=O)C4CCCCC4)cc3C(=O)N([C@@H](C)CO)C[C@H]2C)cc1`, the viability index under setting [1] came to 0.971 ± 0.019.
Under setting [1], `CNC[C@@H]1OCCCC[C@H](C)Oc2ccc(NC(=O)Nc3ccc(OC)cc3)cc2C(=O)N([C@H](C)CO)C[C@@H]1C` came in with a viability index of 1.07 ± 0.029.
In turn, `O=C(C[C@@H]1CC[C@@H]2NC[C@H](O)COC[C@H]2O1)NCc1ccc2c(c1)OCO2` registered a viability index under setting [1] of 1.02 ± 0.035.
Consider `O=C(C[C@@H]1C=C[C@H](NC(=O)Nc2cccc(F)c2)[C@H](CO)O1)NCC1CCCCC1`, for which the viability index under setting [1] worked out at 1.01 ± 0.038.
Compound `C/C=C/c1ccc([C@@H]2[C@H](CO)N3C(=O)CN(C(=O)c4ccncc4)C[C@@H]23)cc1` returned a viability index under setting [1] of 0.9841 ± 0.0026.
For `CNC[C@@H]1Oc2ccc(NS(=O)(=O)c3ccc(OC)cc3)cc2C(=O)N([C@H](C)CO)C[C@@H]1C`, under setting [1], the viability index was determined as 1.04 ± 0.013.
`CO[C@@H]1CN(C)C(=O)c2ccc(NC(=O)NC(C)C)cc2OC[C@@H](C)N(Cc2ccccc2)C[C@H]1C`: for the setting “library set: Broad Institute Blood Stage”, the viability index turned out to be 0.926 ± 0.045.
The compound `CCCC#Cc1ccc([C@H]2[C@@H](C#N)N(C(=O)CN3CCOCC3)[C@@H]2CO)cc1` came in with a viability index under setting [1] of 1.079 ± 0.002.
Under setting [1], `COc1cccc(C(=O)Nc2ccc3c(c2)C(=O)N(C)[C@H]2CC[C@H](CC(=O)NCc4ccc(F)cc4)O[C@H]2CO3)c1` had a viability index of 1.09 ± 0.048.
On to `COCC(=O)N1CC(=O)N2[C@H](C1)[C@H](c1ccc(-c3ccncc3)cc1)[C@@H]2CO`, for which, under setting [1], the viability index worked out at 1.06 ± 0.021.
On the same count and under the same terms, as for `O=C(NCC[C@H]1CC[C@@H](NS(=O)(=O)Cc2ccccc2)[C@@H](CO)O1)C1CCCCC1`, the figure is 1.03 ± 0.13; as for `CCCNC(=O)N1C[C@H]2[C@@H](c3ccccc31)[C@@H](CO)N2Cc1cccc(OC)c1`, 1.09 ± 0.059.
With `Cc1nn(C)cc1NC(=O)C[C@@H]1CC[C@@H]2[C@H](COc3ccc(NC(=O)c4cccc(F)c4)cc3C(=O)N2C)O1`, under setting [1], the viability index stood at 1.15 ± 0.11.
Under setting [1], `O=C(Cc1ccncc1)Nc1ccc2c(c1)[C@@H]1C[C@@H](CC(=O)N3CCc4ccccc4C3)O[C@H](CO)[C@@H]1O2` displayed a viability index of 1.082 ± 0.0014.
Under setting [1], `N#C[C@H]1[C@@H](c2ccccc2)[C@H](CO)N1C(=O)c1ccc2c(c1)OCO2` gave a viability index of 1.01 ± 0.088.
Under setting [1], `CN(C)C(=O)C[C@@H]1CC[C@@H]2[C@@H](COc3ccc(NC(=O)C4CCCCC4)cc3C(=O)N2C)O1` yielded a viability index of 1.04 ± 0.07.
`OC[C@H]1[C@@H](c2ccccc2)C2(CN(Cc3nccs3)C2)N1Cc1cc(F)ccc1F` displayed a viability index under setting [1] of 1.1 ± 0.06.
Same read-out and setting: as for `N#Cc1cccc(-c2ccc3c(c2)[C@H]2[C@H](CCN2Cc2ccc4c(c2)OCO4)[C@H](CO)N3)c1`, the figure is 0.955 ± 0.043; as for `O=C1CNC[C@@H]2[C@@H](c3ccc(C4=CCCC4)cc3)[C@H](CO)N12`, 1.02 ± 0.12; as for `C[C@@H]1CN([C@H](C)CO)C(=O)Cc2cc(NC(=O)CCCCCC(=O)Nc3ccccc3N)ccc2O[C@H]1CN(C)S(=O)(=O)c1cccs1`, 0.92 ± 0.16.
`COc1ccc2c3c([nH]c2c1)[C@@H](CO)N(C[C@]31CN(Cc2ccccc2Cl)C1)C(C)=O` yielded a viability index under setting [1] of 1.01 ± 0.02.
Under setting [1], `CCCNC(=O)C[C@@H]1CC[C@@H]2[C@H](COc3ccc(NC(=O)CC)cc3C(=O)N2C)O1` showed a viability index of 1.12 ± 0.12.
Still for that read-out and setting: to `C[C@@H]1CN([C@H](C)CO)C(=O)CCCn2nncc2CO[C@@H]1CN(C)C(=O)Nc1ccc2c(c1)OCCO2` belongs 1.05 ± 0.037.
The same measure, in the same setting: to `N#Cc1cccc(-c2ccc([C@H]3[C@H]4CNC[C@@H]3N4S(=O)(=O)Cc3ccccc3)cc2)c1` belongs 1.05 ± 0.047.
Under setting [1], `CCCNC(=O)N1[C@@H]2Cn3c(ccc(-c4ccc(OC)cc4)c3=O)[C@H]1[C@@H](C(=O)NC1CCC1)[C@@H]2CO` yielded a viability index of 1.09 ± 0.026.
On to `Cc1noc(C)c1S(=O)(=O)N(C)C[C@@H]1Oc2c(NC(=O)c3ccc(-c4nccs4)cc3)cccc2C(=O)N([C@@H](C)CO)C[C@H]1C`, for which the viability index under setting [1] was 0.828 ± 0.018.
On the same count and under the same terms, to `O=C(C[C@H]1CC[C@@H]2[C@H](COC[C@@H](O)CN2C(=O)c2cnccn2)O1)N1CCN(c2ccccc2)CC1` belongs 1.05 ± 0.11.
Compound `O=C(CN1CCOCC1)N[C@@H]1CC[C@@H](CCn2cc(C3CC3)nn2)O[C@@H]1CO` registered a viability index under setting [1] of 1.14 ± 0.095.
Compound `C[C@H](CO)N1C[C@H](C)[C@@H](CN(C)C(=O)Nc2ccc(C(F)(F)F)cc2)OCCCC[C@H](C)Oc2ccc(NS(=O)(=O)c3cn(C)cn3)cc2C1=O` came in with a viability index under setting [1] of 1.04 ± 0.19.
Under setting [1], `COc1cccc(S(=O)(=O)Nc2ccc3c(c2)C(=O)N(C)[C@@H]2CC[C@H](CC(=O)NCC4CCCCC4)O[C@H]2CO3)c1` displayed a viability index of 0.964 ± 0.022.
